Reference: PubChem BioAssay AID504332 (National Center for Advancing Translational Sciences (NCATS), 2011)
About 31,000 (8.9%) of roughly 350,000 compounds were called active. The shares of active, inactive and inconclusive entries below differ from those in the screen. The call rests on the fitted dose curve; in most records, active means well fitted inhibition curve with a large enough effect; inconclusive means small, poorly fitted or top-dose-only effect; inactive means no such curve, though single readings can be large or run the other way. Potencies beside an inconclusive call are fits to weak or partial responses and may not hold up.

molecular target: Histone-lysine N-methyltransferase EHMT2 (Homo sapiens) (UniProt Q96KQ7); experiment: qHTS Assay for Inhibitors of Histone Lysine Methyltransferase G9a; conditions: G9a H3K9 monomethylation, AlphaScreen, 2 h; activity, negative = inhibition: at 59 µM (top of the series) unless noted; further: nearly all actives have a fitted effect of over 75% in size
UniProt Q96KQ7, sequence (Q96KQ7 whole entry, looked up): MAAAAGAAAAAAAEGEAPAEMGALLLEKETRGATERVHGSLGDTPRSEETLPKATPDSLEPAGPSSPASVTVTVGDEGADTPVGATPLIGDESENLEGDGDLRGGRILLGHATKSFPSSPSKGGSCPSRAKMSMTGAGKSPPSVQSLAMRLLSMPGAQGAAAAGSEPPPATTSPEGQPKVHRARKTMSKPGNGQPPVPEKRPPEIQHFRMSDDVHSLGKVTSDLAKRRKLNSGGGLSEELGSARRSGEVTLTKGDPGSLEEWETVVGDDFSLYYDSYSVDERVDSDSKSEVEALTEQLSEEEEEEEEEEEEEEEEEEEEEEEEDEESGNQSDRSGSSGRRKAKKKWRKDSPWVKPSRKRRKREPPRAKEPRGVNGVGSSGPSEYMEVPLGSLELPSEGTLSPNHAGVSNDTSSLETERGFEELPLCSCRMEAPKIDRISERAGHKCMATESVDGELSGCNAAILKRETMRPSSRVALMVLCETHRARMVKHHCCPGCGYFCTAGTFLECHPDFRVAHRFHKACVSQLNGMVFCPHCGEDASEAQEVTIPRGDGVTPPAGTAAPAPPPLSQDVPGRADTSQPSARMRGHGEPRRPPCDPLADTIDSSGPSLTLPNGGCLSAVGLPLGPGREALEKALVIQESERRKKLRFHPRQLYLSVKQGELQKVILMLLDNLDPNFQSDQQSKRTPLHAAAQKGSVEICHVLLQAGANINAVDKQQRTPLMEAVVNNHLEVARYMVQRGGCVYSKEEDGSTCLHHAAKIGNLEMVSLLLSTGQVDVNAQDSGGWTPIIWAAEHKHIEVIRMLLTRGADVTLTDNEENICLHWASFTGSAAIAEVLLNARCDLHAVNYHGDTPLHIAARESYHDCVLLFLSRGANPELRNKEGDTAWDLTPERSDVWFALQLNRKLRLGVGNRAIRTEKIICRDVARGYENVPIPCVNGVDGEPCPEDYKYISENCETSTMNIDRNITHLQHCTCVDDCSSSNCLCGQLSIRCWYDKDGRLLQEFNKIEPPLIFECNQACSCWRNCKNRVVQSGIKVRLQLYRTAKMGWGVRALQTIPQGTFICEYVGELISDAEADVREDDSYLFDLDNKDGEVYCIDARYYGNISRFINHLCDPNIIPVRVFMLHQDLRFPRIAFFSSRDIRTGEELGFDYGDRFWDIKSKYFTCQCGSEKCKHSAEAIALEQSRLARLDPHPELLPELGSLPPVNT
Summary of the method: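 AlphaScreen detection with an anti-monomethyl H3K9 antibody quantified product after a 2 h room-temperature reaction containing 500 nM biotinylated H3K9 peptide, 20 µM SAM and 20 nM enzyme, which had been preincubated 15 min with compound.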
On the % scale 0 is the no-effect control and ±100 the full control effect; potency means the concentration at half of the fitted maximal effect; tags describe the fitted curve by direction and shape.

Row | Compound | Potency | activity, negative = inhibition
1 | CN(C)c1cccc(NC2=CC(=[N+]3CCOCC3)CC(C)(C)C2)c1 | active: 11.2 µM | –
2 | CCN(CC)c1ccc(/C=C2\C(=O)c3ccc(C(=O)O)cc3C2=O)cc1 | active: 11.2 µM | –
3 | O=C(C1CCCCC1)N1CCCC(c2nc3c(nnn3Cc3ccccc3)c(=O)[nH]2)C1 (stereo unspecified) | inactive | –
4 | CN(C)S(=O)(=O)c1cccc(NC(=O)CN(CCO)CC(=O)Nc2cccc(S(=O)(=O)N(C)C)c2)c1 | inconclusive: 44.7 µM [inhibitor, partial curve] | –
5 | CCCCn1c(N)c(N(CCOC)C(=O)c2nn(CC)c(=O)c3ccccc23)c(=O)[nH]c1=O | inconclusive: 100 µM [inhibitor, single point] | –
6 | CC(C)Cc1cc(C(=O)Nc2sc3c(c2C#N)CCC3)no1 | active: 44.7 µM | –
7 | C=C(C)C(=O)Nc1cccc(C2=NOC3(C2)C[C@@H](C(N)=O)N(C(=O)C2(C)CC2)C3)c1 (stereo partly specified) | – | inconclusive: -182% [inhibitor] [at 12.7 µM]
8 | COc1ccc(CCNC(=O)CSCc2c(F)cccc2Cl)cc1OC | inactive | –
9 | COC(=O)c1cc2nc(-c3ccccc3)cc(C)n2n1 | inconclusive: 3.55 µM [inhibitor, single point] | –
10 | O=C(Cc1csc(Nc2nc(=S)[nH]c3ccccc23)n1)N1CCN(c2cccc(C(F)(F)F)c2)CC1 | inactive | –
11 | O=C(O)c1ccc(NS(=O)(=O)c2ccc3c(c2)C(=O)c2ccccc2C3=O)cc1 | active: 44.7 µM | –
12 | O=C(O)CCC(=O)Nc1cccc(-c2csc(-c3ccccc3)n2)c1 | inconclusive: 14.1 µM [inhibitor, partial curve, poor fit] | –
13 | COc1ccc(C(=O)Oc2cc(C)[nH]c(=O)c2[N+](=O)[O-])c(OC)c1 | inconclusive: 79.4 µM [inhibitor, single point] | –
14 | O=C(c1cccc(NS(=O)(=O)c2ccc(F)c(F)c2)c1)N1CCN(C(c2ccccc2)c2ccccc2)CC1 | active: 50.1 µM | –
15 | C/C(=N\NC(=O)c1ccc(F)cc1)c1ccc(N2CCOCC2)cc1 | inactive | –
16 | O=C(O)c1ccccc1-c1nc(-c2ccccc2)c(-c2ccccc2)[nH]1 | inconclusive: 79.4 µM [inhibitor, single point] | –
17 | CCOc1cccc(C2CC(=O)Nc3cc4c(cc32)OCCO4)c1 (stereo unspecified) | inactive | –
18 | O=C(NCc1ccccc1)C1CCCN(S(=O)(=O)c2ccc(Br)cc2)C1 (stereo unspecified) | inactive | –
19 | Cc1ccccc1Cn1nc(C)c(NC(=O)c2nc3n(n2)C(C(F)F)CC(C)N3)c1C (stereo unspecified) | inactive | –
20 | Cc1onc(-c2c(Cl)cccc2Cl)c1C(=O)NCc1ccco1 | inactive | –
21 | CC1CCN(c2nc3c(S(=O)(=O)c4ccc(Cl)cc4)nnn3c3ccsc23)CC1 | inactive | –
